PubChem BioAssay AID1508623 (National Center for Advancing Translational Sciences (NCATS), 2021)
Out of some 48,000 compounds screened, about 450 (0.94%) were called active. Roughly 19% stayed inconclusive and do not appear here. The call rests on the fitted dose curve; in most records, active means well fitted inhibition curve with a large enough effect; inconclusive means small, poorly fitted or top-dose-only effect; inactive means no such curve, though single readings can be large or run the other way. The list shows a part of the results.

Assay: Primary qHTS for Identification of Small Molecule Inhibitors of Huntingtin Promoter Activity; further: nearly all actives have a fitted effect of over 50% in size
Details: HEK293 HTT promoter firefly luciferase reporter (activity 0% = vehicle and -100% = no light), 24 h; series mostly up to 57.5 µM; activity change, negative = inhibition: at the top concentration
Outline: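 Luminescence was read after Dual-Glo reagent and a 10 min room-temperature incubation. Values were normalized to vehicle (0% activity) and zero RLU (-100% activity). Reporter HEK293 cells had been exposed to compounds (up to 57.5 uM final) for 24 h.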

Activity change, negative = inhibition, inactive:
CCOc1ccc(CCNC(=O)CCCn2nc(C)c3sc4ccccc4c3c2=O)cc1OCC -23.7%
CCn1c2ccccc2c2nnc(SCCN3CCCCC3)nc21 -8.27%
COC(=O)CC1c2cc(OC)c(OC)cc2CCN1C(=O)Nc1ccc(C)cc1Cl (centres undefined) -4.15%
COc1ccccc1Nc1nn2c(=O)c3ccc(C(=O)NCCCOC(C)C)cc3nc2s1 -14.8%
CCOc1ccc(OCC)c(NC(=O)Cn2ncc3c4ccccc4n(Cc4ccccc4)c3c2=O)c1 0%
CCC1CN(C(=O)N2CCC(C(=O)NCCN(C)C)CC2)c2ccccc2O1 (centres undefined) -0.501%
Cn1ccc2cc(S(=O)(=O)N3CCCN(C(=O)Nc4ccccc4Br)CC3)ccc21 -34.4%
Cc1ccc(NC(=O)c2cnc(SCC(=O)N3CCOCC3)n(C)c2=O)cc1 -10.9%
COc1cccc(NC(=O)CN(C)S(=O)(=O)c2ccc3nc(C)sc3c2)c1 -25.3%
COc1ccc(C)cc1N(C)C(=O)c1c(C)oc2ncnc(N3CCOCC3)c12 -2.85%
CN(c1ccc(Cl)cc1)S(=O)(=O)c1nnc(NC(=O)C2CCCCC2)s1 -4.1%
CCOc1ccccc1NC(=O)c1c(NC(=O)c2ccccc2C)sc2c1CCC(C)C2 (centres undefined) -3.73%
COC(=O)c1c(C)sc(-c2c(-c3ccc4c(c3)OCCO4)[nH]c3c2c(=O)n(C)c(=O)n3C)c1O -15.4%
CCNC(=O)c1cnc2sc(N3CCCCCC3)nn2c1=O 32.1%
CCC(C)NC(=O)c1cnn(-c2ccc(Cl)cc2)c1C1CCN(C(=O)OC(C)(C)C)CC1 (centres undefined) -4.9%
Nc1nnc(SCC(=O)Nc2ccccc2C(F)(F)F)s1 -8.86%
COC(=O)c1n[nH]n(-c2ccccc2)c1=O -0.275%
CN(C1CCCCC1)S(=O)(=O)c1ccc2c(c1)c(=O)c(C(=O)NCCc1ccccc1)cn2C -1.52% [at 11.5 µM]
Cc1ccn2c(Nc3ccc4c(c3)OCCO4)c(-c3ccc(Cl)s3)nc2c1 22.1%
Cc1cccc(NC(=O)C2CCCN(S(=O)(=O)c3cnc[nH]3)C2)c1C (centres undefined) -33.6% [at 11.5 µM]
Cc1ccc2c(c1)cc(C(=O)Nc1ccc(F)cc1F)n2C 14.4%
CCOC(=O)c1cc(NC(=O)c2ccc(F)cc2)c(=O)n2c1oc1ccccc12 3.34%
Cc1ccc(C(=O)N(Cc2ccc(N(C)C)cc2)Cc2ccco2)cc1 -18.9%
Cn1c(=O)c2cc(C(=O)N3CCN(c4ccc(Cl)cc4)CC3)sc2c2ccccc21 -5.3%
Cc1oc(-c2ccc(C(=O)Nc3cc(F)ccc3F)cc2)nc1COc1ccccc1 -36.1%
CCNC(=O)Cc1ccc(NC(=O)N2CCCCc3ccccc32)cc1 -3.49%
CCN(CC)c1nn2c(=O)c(C(=O)NCc3ccc(F)cc3)cnc2s1 5.99%
CCCn1c2ccccc2c2cnn(CC(=O)NCCc3ccc(OC)cc3OC)c(=O)c21 -9.98%
O=C1c2ccccc2-c2n[nH]c3cccc1c23 8.6%
Cc1nc(-c2ccccc2)sc1CCNS(=O)(=O)c1ccc(Br)cc1 -40.2%
O=C(c1ccc(OCCN2CCCCC2)cc1)c1c(-c2ccc(O)cc2)sc2cc(O)ccc12
CCn1nc(C)c(CCN(C)C(=O)Nc2cc(Cl)ccc2C)c1C 19.2%
Cc1ccc(CNC(=O)CCS(=O)(=O)c2cc(Br)cc3c2N(C(=O)C2CC2)CC3)cc1 -7.27%
COc1cc2c(c(OC)c1OC)-c1ccc(OC)c(=O)cc1[C@@H](NC(C)=O)CC2
O=C(Nc1ccc(Cl)cc1)N1CCN(c2ccc3nnc(-c4ccc(F)cc4)n3n2)CC1 -0.396%
Cc1ccc(-n2nc(CO)c(C(=O)NCc3cccs3)n2)cc1 -25.9%
Cc1cc(C)c(S(=O)(=O)NCC(c2cccs2)S(=O)(=O)c2ccccc2)c(C)c1 (centres undefined) -29.4%
Cc1ccc(NCc2nc3ccccc3n2CCOc2ccccc2)cc1 -4.16%
Cc1cc(NC(=O)Nc2nc3c(s2)CCCCCC3)ccc1Br -5.87%
COc1ccccc1Nc1cc(C(=O)NCc2cccs2)c2ccccc2n1 -18.2%
CCC(=O)N1CCc2cc(S(=O)(=O)CCC(=O)NCc3ccccc3OC)ccc21 -1.34%
NC(=O)CSc1ncc2c(n1)-c1ccccc1N(Cc1cccc(F)c1)S2(=O)=O -14.6%
COc1ccc2nc3oc(C(=O)NCc4ccccc4OC)cc3cc2c1 22.6%
COc1ccccc1-c1nnc(C2CCN(C(=O)c3ccc(C)cc3)CC2)o1 -15%
COc1ccc(-c2noc(-c3nnn(-c4cc(C)ccc4C)c3N)n2)cc1 4.33%
CN(C)S(=O)(=O)c1ccc2c(c1)N(CC(=O)N1CCN(c3ccc(F)cc3)CC1)CCS2 -19%
CC1CCN(c2ccc(-c3nc(C(C)C)no3)cc2[N+](=O)[O-])CC1 22.8%
CCN(CC)CCNC(=O)c1ccc(Cn2c(=O)c3cccn3c3cccnc32)cc1 5.35%
Cc1cc(NC(=O)CSc2ncc(C(=O)Nc3ccc(F)cc3)c(=O)n2C)no1 -8.7%
O=c1oc2ccc(Br)cc2cc1-c1csc(-c2ccc(Cl)cc2)n1 4.09%
O=C(CC(NCc1cccnc1)C(=O)O)Nc1ccc(F)cc1 (centres undefined) -1.06%
C=Cc1ccc(Cn2c(C(=O)O)c(CNCc3cc(Br)ccc3OC)c3ccc(C)cc32)cc1 2.14%
Cc1cccc(N2CCN(C(=O)CS(=O)(=O)c3cccc4nsnc34)CC2C)c1 (centres undefined) -13.3%
CCCN1C(=O)C2(c3ccccc31)c1c(oc3ccccc3c1=O)C(=O)N2CCO (centres undefined) -8.17%
CC(CN1c2ccccc2Sc2ccccc21)N(C)C (centres undefined) -7.49%
COc1ccc(-c2cc3ccc(O)c(CN4CCC(C)CC4)c3oc2=O)cc1OC -4.73%
Cc1cccc(Cn2cccc2CNS(=O)(=O)c2ccc(Br)cc2)c1 -14.1%
COc1cc(-c2nnc(SCCOc3cc(C)cc(C)c3)o2)cc(OC)c1OC -6.54%
Cc1ccc(C(C)C)c(OC(C)C(=O)NCC2(N(C)C)CCCCC2)c1 (centres undefined) -15.1%
Cc1ccccc1CN1C(=O)c2ccccc2S(=O)(=O)c2ccc(C(=O)OCC3CCCO3)cc21 (centres undefined) -2.83%
COc1ccc(S(=O)(=O)Nc2cc(S(=O)(=O)c3ccccc3)c(O)c(C)c2C)cc1 -16.5%
CC(NC(=O)CN1C(=O)c2cccnc2Oc2ccc(Cl)cc21)c1ccccc1 (centres undefined) 5.71%
Cc1cc(OC(C)C(=O)Nc2sc3c(c2C(N)=O)CCCC3)ccc1Cl (centres undefined) 8%
CCOc1ccccc1CNc1nc2nc(C)cc(C)n2n1 -2.35%
Cc1ccc(Cn2c(C(C)NC(=O)c3ccccc3)nc3ccccc32)cc1 (centres undefined) -21.8%
CCOC(=O)c1c(C)[nH]c(CCC(=O)Nc2ccc(OC)c(OC)c2)c1C -12.1%
CC(C)NC(=O)CCC(=O)N1Cc2ccccc2Oc2ncccc21 -1.43%
Cn1ccc2cc(S(=O)(=O)N3CCN(C(=O)Nc4ccc(F)cc4F)CC3)ccc21 -28.9%
CC1Cc2ccccc2N1S(=O)(=O)c1nnc(NC(=O)c2ccccc2)s1 (centres undefined) -23%
NS(=O)(=O)c1ccc(NC(=O)C2Cc3ccccc3N2C(=O)c2ccccc2)cc1 (centres undefined) -1.68%
CCCCN(CC)CCCNC(=O)c1nn(C)c2c1CSc1ccccc1-2 -15.7%
COc1ccc(OC)c(CCNC(=O)Cn2ncc3c([nH]c4ccccc43)c2=O)c1 1.33%
COCCCNC(=O)CCC(=O)NNc1nc2ccccc2c2nc(C)nn12 -6.47%
CC(C)Oc1ccc(-c2nc3c(C#N)c[nH]n3c2NC2CCCCC2)cc1 12.3%
COc1ccc(N2CC(NC(=O)C(c3ccccc3)c3ccccc3)CC2=O)cc1OC (centres undefined) 3.17%
COc1cccc(-c2nc(S(=O)(=O)c3ccc(C)cc3)c(N3CCCCC3)o2)c1 -5.65%
COc1ccccc1CNC(=O)c1ccc2nc(CCc3ccccc3)oc2c1 -23.2%
COc1ccc(-c2nc(SCC(=O)Nc3c(C)cc(C)cc3C)n[nH]2)cc1 -14.9%
CCOC(=O)c1c(C)oc2ncnc(Nc3ccc(OC)c(OC)c3)c12 -9.21%
COc1ccc(Cn2c(=O)c3cccnc3n(Cc3cccc(F)c3)c2=O)cc1 -34.7%
COC(=O)c1ccc(C(=O)OC)c(NC(=O)c2ccc(-c3ccccc3)s2)c1 11.4%
CCOc1cc(N2CCC(O)CC2)ccc1Nc1ncc2c(n1)N(C)c1ccccc1C(=O)N2C 23.6%
CCOC(=O)c1ccccc1NC(=O)CSc1nccn1Cc1ccco1 -5.68%
COc1ccccc1NC(=O)c1c(C)cc(C)nc1SCC(=O)c1ccc(Cl)cc1 -25%
CC(C)Oc1ccc(C(=O)N(Cc2ccco2)Cc2cccs2)cc1 -14.2%
Cc1cccc(C)c1NC(=O)c1sc(-n2nc(C)c(Cc3ccccc3)c2C)nc1C -2.07%
O=C(CSc1ncc(S(=O)(=O)c2ccc(Cl)cc2)c(=O)[nH]1)Nc1cccc(C(F)(F)F)c1 -4.45%
Cc1cc(OCC(=O)N(Cc2ccc(N(C)C)cc2)CC2CCCO2)ccc1Cl (centres undefined) -25.3%
COc1ccc(-c2cc3nc(C)c(CCC(=O)NC4CCCCC4)c(C)n3n2)c(OC)c1 -14.5%
O=C(c1cccn1-c1nnc(N2CCCC2)s1)N1CCN(c2ccc(Cl)cc2)CC1 -25.8%
COc1cc(C2Nc3c(C)cc(C)cc3-c3cc(C)nn32)cc(OC)c1O (centres undefined) -21.6% [at 11.5 µM]
Cc1ccc2c(c1)C(c1ccccc1)N(C(=O)Cc1ccc(F)cc1)CC(=O)N2 (centres undefined) -27.3%
Cn1c(=O)[nH]c2cc(-c3noc(-c4ccc(C#N)cc4)n3)ccc21 -2.67%
Cc1cc(C)n(-c2nnc(Nc3ccc(C)c(Cl)c3)c3ccccc23)n1 -29.8%
COc1ccc(C2=NC(C)(C)N(CC(=O)Nc3cccc(C)c3)C2=O)cc1 -28.8%
CN(C)C(=O)c1c(NC(=O)c2ccccc2F)sc2c1CCCC2 -13.6%
CC(=O)Nc1ccc(S(=O)(=O)NCC2CCC(C(=O)NCCN(CC(C)C)CC(C)C)CC2)cc1 (centres undefined) -15.4%
O=C(COc1ccc2ccccc2c1)NC1CC(=O)N(c2cccc(F)c2)C1 (centres undefined) -10.3%
Nc1nc2ccc([N+](=O)[O-])cc2s1 10% [at 116 µM]
